Test results reported in publication PMC6919601, “Identification of Plasmodium dipeptidyl aminopeptidase allosteric inhibitors by high throughput screening” (PLoS ONE, 2019).
The campaign covered roughly 110,000 compounds. About 230 (0.21%) showed an effect of 50% or more. The list shows a part of the results.

molecular target: DPAP1 (Plasmodium falciparum, UniProt Q8IIJ9); test: primary screen, percent inhibition; read by cleavage of a fluorogenic dipeptide substrate; higher = more effect of the substance; set-up: species or system P. falciparum D10 trophozoite lysates; single well
Sequence (Q8IIJ9 whole entry, looked up): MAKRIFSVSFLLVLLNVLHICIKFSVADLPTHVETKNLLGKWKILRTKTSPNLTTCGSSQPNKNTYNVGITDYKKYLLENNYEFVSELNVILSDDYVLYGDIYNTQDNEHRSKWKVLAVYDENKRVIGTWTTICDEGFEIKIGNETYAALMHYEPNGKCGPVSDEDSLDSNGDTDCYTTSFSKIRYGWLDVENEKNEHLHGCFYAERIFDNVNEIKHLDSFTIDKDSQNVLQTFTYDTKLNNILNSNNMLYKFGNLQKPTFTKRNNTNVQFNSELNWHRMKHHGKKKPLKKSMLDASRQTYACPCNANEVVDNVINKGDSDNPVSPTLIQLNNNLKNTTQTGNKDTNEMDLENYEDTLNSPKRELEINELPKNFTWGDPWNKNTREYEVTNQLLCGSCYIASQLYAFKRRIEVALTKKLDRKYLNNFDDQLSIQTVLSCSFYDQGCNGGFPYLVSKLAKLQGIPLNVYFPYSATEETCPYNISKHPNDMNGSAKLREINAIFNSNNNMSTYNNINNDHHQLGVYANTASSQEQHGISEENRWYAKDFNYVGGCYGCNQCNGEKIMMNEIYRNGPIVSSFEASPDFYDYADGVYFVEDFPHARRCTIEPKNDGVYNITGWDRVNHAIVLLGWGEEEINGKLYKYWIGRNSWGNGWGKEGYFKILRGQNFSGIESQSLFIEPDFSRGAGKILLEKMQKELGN
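Further: 30 min substrate incubation versus DMSO and 10 µM JCP410 controls.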

In order of falling “% Inhibition @ 10 uM” value:
1. CCOC(=O)c1sc2ncnc(O)c2c1C  17.4%
2. Cc1ccc(-n2nc3c(c2NC(=O)Cc2ccc(F)cc2)CSC3)cc1  14.7%
3. CCOC(=O)/C(C#N)=C/c1ccc(O)c([N+](=O)[O-])c1  10.7%
4. N#C/C(=C\c1ccc(O)cc1)c1nc(-c2ccc(F)cc2)cs1  9.96%
5. CC(=O)Nc1ncc2c(n1)CC(c1ccc(Cl)cc1)CC2=O (stereo not drawn)  7.98%
6. Cc1ccc(-c2noc(CCC(=O)NCCCN3CC(C)CC(C)C3)n2)cc1 (stereo not drawn)  7.15%
7. Cc1cc2ncn(C(=O)c3c(-c4ccccc4)noc3C)c2cc1C  6.82%
8. COc1cc(OC)cc(-c2nc3n(n2)C(c2ccncc2)C2=C(O)CC(C)(C)CC2=N3)c1 (stereo not drawn)  6.7%
9. Cc1cc(/C=C2\SC(=O)NC2=O)c(C)n1-c1ccc2c(c1)OCO2  6.59%
10. O=c1cc2nc(-c3ccccc3)nc(SCc3ccc(Br)cc3)n2[nH]1  6.41%
11. COc1ccc(CCNC(=O)CCS(=O)(=O)Cc2ccc(Cl)cc2)cc1OC  6.32%
12. Cn1c(=O)n(C)c2cc(/C=C3/SC(=O)N(Cc4ccccc4)C3=O)ccc21  6.17%
13. O=S(=O)(NCc1ccc2c(c1)OCO2)c1ccc(F)c(Cl)c1  6.01%
14. COCCNC(=O)c1ccc(CS(=O)Cc2ccc(Cl)cc2)o1 (stereo not drawn)  5.88%
15. N#Cc1ccccc1N/C=C/C(=O)c1ccc(Cl)cc1  5.83%
16. CCC(C)Sc1nc2c(c(=O)n(C)c(=O)n2C)n1Cc1ccccc1 (stereo not drawn)  5.58%
17. Cc1nn(-c2ccccc2)c2sc(C(=O)Nc3ccc(F)cc3)cc12  5.39%
18. COc1cc2c(cc1OC)C(c1cccc(OC)c1OC)CC(=O)N2 (stereo not drawn)  5.39%
19. O=S(=O)(c1ccc(F)cc1)c1c(-c2ccc(F)cc2)cn2ccccc12  5.05%
20. CCOc1ccc(N2C(=O)CC(N3CC(C)CC(C)C3)C2=O)cc1 (stereo not drawn)  4.83%
21. O=C(NCc1ccccc1)N1CCOCC1  4.66%
22. COc1ccc(/C=C/C(=O)N2CCN(c3ccc([N+](=O)[O-])cc3)CC2)cc1  3.76%
23. CN(C)CCN(Cc1ccccc1)Cc1ccccc1[N+](=O)[O-]  3.48%
24. Cc1ccccc1OCC(=O)Nc1cccc(N2C(=O)c3ccc([N+](=O)[O-])cc3C2=O)c1  3.47%
25. Cc1nc2nc(CC(=O)O)nn2c(O)c1Br  3.47%
26. C=CCNc1nc(Cl)nc(NC(C)C)n1  3.44%
27. O=C(O)c1ccn(COc2ccc(Br)cc2)n1  3.36%
28. CC(CN)Nc1ccc([N+](=O)[O-])cc1 (stereo not drawn)  2.76%
29. COc1cc2ccccc2cc1C(=O)Nc1cccc(NC(=O)c2ccccc2)c1  2.7%
30. O=C(CSc1nncn1C(=O)/C=C/c1ccccc1)c1ccccc1  2.7%
31. Cc1ccc2nc(C)c(CN(C)C)c(O)c2c1  2.36%
32. CCOC(=O)c1cnc2ccccc2c1NCCc1ccccc1  2.26%
33. COc1ccc(-n2nc3c(N4CCCC(C(=O)NC5CCCC5)C4)nnc(C)c3c2C)cc1 (stereo not drawn)  2.25%
34. COc1ccc(CN(C)C2CCN(C)CC2)cc1Br  2.23%
35. COc1ccc(Cl)cc1/C=C1\SC(=O)N(C)C1=O  2.17%
36. O=S(=O)(NCCCSC1CCCCC1)c1ccc(Br)cc1  2.05%
37. CC(C)CNC(=O)CN(c1ccc(Br)cc1)S(C)(=O)=O  1.92%
38. CSc1ccc(CN2CCN(C=O)CC2)cc1  1.9%
39. Cc1ccc(C(=O)CCC(=O)Nc2ccc(C)c(Cl)c2)cc1  1.67%
40. COc1cc(C(=O)Nc2ccc(F)c(F)c2)ccc1OC(F)F  1.59%
41. Cc1ccc(S(=O)(=O)N2CCN(S(=O)(=O)c3ccc(C)cc3)C2)cc1  1.52%
42. COc1nc(N(C)C)nc(N(C)C)n1  1.48%
43. COc1ccc(CCNC(=O)CCc2c(C)nc3c4c(C)cc(C)nc4nn3c2C)c(OC)c1  0.66%
44. CCOC(=O)c1ccc(-n2c(CCC(=O)O)ccc2-c2cccs2)cc1O  0.413%
45. CCOC(=O)C1=C(CC)OC(N)=C(C#N)C1c1cccnc1 (stereo not drawn)  0.317%
46. CSc1ccc(Cn2cccc2C2=NC(C(C)C)CO2)cc1 (stereo not drawn)  0.163%
47. Cc1ccc2c(c1)cc1c(=O)n(CC(=O)NCCc3ccc(Cl)cc3)nc(C)n12  0.0198%
48. CC(=C1C(=O)c2ccccc2C1=O)N1CCc2ccccc2C1  -0.169%
49. Cc1ccc(Cl)cc1NC(=O)C1CC=CCC1C(=O)O (stereo not drawn)  -0.171%
50. O=C(NCCN1CCN(C(=O)c2cc(F)c(F)cc2Cl)CC1)c1cc(F)c(F)cc1Cl  -0.597%
51. COc1ccc(OC)c(CCNc2nc3cc(OC)c(OC)cc3c3nc(-c4ccccc4)nn23)c1  -0.692%
52. CC(C)(C)C(=O)CC(c1ccccc1)C1C(=O)c2ccccc2C1=O (stereo not drawn)  -0.771%
53. CCOc1ccc(NC2=C(Cl)C(=O)N(c3cccc(C)c3)C2=O)cc1  -0.864%
54. CC1CCc2nc(N3CCN(Cc4ccccc4)CC3)nc(C(F)(F)F)c2C1 (stereo not drawn)  -0.972%
55. Cc1ccc(-n2c(C)cc(C(=O)C(=O)Nc3nncs3)c2C)cc1C  -1.06%
56. COCCNC(=O)CCC(=O)n1ncc2ccc(Cl)cc21  -1.11%
57. CC1CCN(S(=O)(=O)N2CCC(C(=O)NCc3ccc(F)cc3Cl)CC2)CC1  -1.34%
58. CN1CCN(c2nc(-c3ccc(C(=O)NC(Cc4ccc5ccccc5c4)C(=O)NCC#N)cc3)cs2)CC1 (stereo not drawn)  -1.41%
59. CCCn1c(=N)c(C(=O)NCc2ccccc2)cc2c(=O)n3cc(C)ccc3nc21  -1.47%
60. COc1ccccc1CNC(=O)C(C)n1nc(C)n2c(cc3sccc32)c1=O (stereo not drawn)  -1.58%
61. CCCNC(=O)Cn1nc(CC)n2c(cc3c(OC)cccc32)c1=O  -1.7%
62. CC1=C(C(=O)Nc2ccc(C)cc2)C(c2ccco2)NC(=O)N1 (stereo not drawn)  -1.76%
63. CC(C)C[C@H](NC(=O)c1ccc(I)cc1)C(=O)NCC#N  -1.82%
64. COc1cc(C2N3CC4(C)CN2CC(C)(C3)C4)ccc1O (stereo not drawn)  -1.82%
65. O=C1CCOc2cc(OCc3ccccc3)ccc21  -2.09%
66. COc1ccc(S(=O)(=O)N(CC(=O)Nc2ccc3c(c2)OCCO3)Cc2ccccc2)cc1  -2.28%
67. O=C(Nc1cccc2cccnc12)c1cccc([N+](=O)[O-])c1  -2.63%
68. COc1ccc(-c2noc(CC(=O)Nc3nc4ccc(OC)cc4s3)n2)cc1  -2.85%
69. O=C(O)CCCC(=O)Nc1ccc(N2C(=O)C3C4CCC(C4)C3C2=O)cc1 (stereo not drawn)  -2.88%
70. O=C(c1ccccc1)N1CCN(C(=O)c2ccncc2)CC1  -2.94%
71. Cc1c(N2C(=O)CCC2=O)c(=O)n(-c2ccccc2)n1C  -3.04%
72. Cc1cc(C)c(C#N)c(S(=O)Cc2ccc(Cl)cc2)n1 (stereo not drawn)  -3.06%
73. C=CCn1c(C)c(/C=C(/C#N)C(=O)Nc2ccc(OC)cc2)c2ccccc21  -3.09%
74. CC1=C(C(N)=O)C(c2ccccc2Cl)n2nc(-c3ccncc3)nc2N1 (stereo not drawn)  -3.28%
75. Cc1cccc(-c2nc(SCC(=O)NCc3ccco3)c(-c3ccccc3)[nH]2)c1  -3.39%
76. CC(NC(=O)CN(c1ccc(F)cc1)S(=O)(=O)c1ccccc1)c1ccccc1 (stereo not drawn)  -3.49%
77. CCOC(=O)c1cnc2nc(SC)nn2c1O  -3.77%
78. COc1ccc(CN2CCN(C(=O)c3cccc(F)c3)CC2)c(OC)c1OC  -4.02%
79. COC(=O)c1nc2n(n1)C(c1ccccc1)C1=C(O)CC(C)(C)CC1=N2 (stereo not drawn)  -4.1%
80. COc1ccc(OC)c(C2CC(=O)C3=C(C2)NC(=O)CC3c2ccccc2OC)c1 (stereo not drawn)  -4.16%
81. COc1cc(C2C(C#N)=C(N)Oc3[nH]nc(C(F)(F)F)c32)cc(OC)c1OC (stereo not drawn)  -4.24%
82. CC(C)c1ccc(N(CC(=O)N2CCN(c3ccccc3F)CC2)S(C)(=O)=O)cc1  -4.43%
83. OC(COc1ccccc1F)CN1CCN(Cc2ccc(Cl)cc2)CC1 (stereo not drawn)  -4.66%
84. Cc1cccc(OCCc2c(C)n[nH]c2C)c1  -4.69%
85. COc1cc(OC)cc(C(=O)Nc2nc(-c3nnn(-c4ccccc4C(F)(F)F)c3C)ns2)c1  -4.71%
86. NC(=O)c1ccc(NC(=O)c2ccc([N+](=O)[O-])cc2)cc1  -4.87%
87. COc1ccc(N2CCN(Cc3cc(OC)c(OC)c(OC)c3)CC2)cc1  -4.94%
88. CCOc1ccc(N2CC(C(=O)Nc3cccc(C)c3C)CC2=O)cc1 (stereo not drawn)  -5.19%
89. COc1ccc(C(=O)N(C)Cc2ccccc2)cc1Br  -5.21%
90. COc1ccccc1N1C(=O)C2C(C)NC3(C(=O)N(C/C=C\c4ccccc4)c4ccccc43)C2C1=O (stereo not drawn)  -5.27%
91. Cc1c(C(=O)N2CC(C)OC(C)C2)sc2nc(-c3ccc(F)cc3)cn12 (stereo not drawn)  -5.58%
92. Cc1ccc(C)c(S(=O)(=O)Nc2ccc(C(=O)N3CCCCC3)cc2)c1  -5.86%
93. COc1cc(C)c(CNc2ccc(C)c(C)c2)cc1C  -6.08%
94. Cc1ccc(NC(=O)Nc2ccc3c(c2)nc(C)n3C)cc1  -6.68%
95. OCC1(CO)COC2(CCN(Cc3ccccc3)CC2)N1  -6.7%
96. Cc1cc(C(F)F)n2nc(C(=O)Nc3ccc(C(=O)N4CCOCC4)cc3)nc2n1  -6.79%
97. COc1cc(C2NC(=O)c3[nH]nc(-c4ccc(C)cc4)c32)ccc1O (stereo not drawn)  -7.16%
98. O=C(Nc1c(C(=O)c2ccc(F)cc2)oc2ccccc12)c1cc(=O)c2ccccc2o1  -8.95%
99. COc1cc(CN2CCN(C3CCCC(C)C3)CC2)cc(OC)c1OC (stereo not drawn)  -11%
